# Source: paper PMC6212790
# Some of the results follow. At the low end of the ranking the order means little.
# Target: T1, GST-Rok (full length) (UniProt O34857)
# T1 sequence: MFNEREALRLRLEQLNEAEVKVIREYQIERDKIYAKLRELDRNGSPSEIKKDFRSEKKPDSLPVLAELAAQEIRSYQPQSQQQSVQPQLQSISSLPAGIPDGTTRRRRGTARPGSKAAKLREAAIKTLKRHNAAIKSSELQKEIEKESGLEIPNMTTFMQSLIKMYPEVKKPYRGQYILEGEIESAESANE
# Assay: protein binding microarray;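 also: rank score from −0.5 (least bound) to 0.5 (best bound)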
# Conditions: Rok is a gene silencer of Bacillus subtilis; high values mean tight binding; most listed sequences are background and not binding sites; double strand, one strand shown
row,Sequence,binding signal
1,CACATGGG,-0.0632 E-score
2,ACGGGATC,-0.0935 E-score
3,GCTCTTTA,-0.0828 E-score
4,ACGACAAC,0.163 E-score
5,AGACGTGC,-0.0331 E-score
6,TGATGGCA,-0.0692 E-score
7,CTGCCAGA,-0.126 E-score
8,CTGTGGGA,-0.175 E-score
9,AACGAGGC,-0.00325 E-score
10,GCTTGTAC,0.0128 E-score
11,AATTTCAC,0.136 E-score
12,GATACGCA,0.0774 E-score
13,CGTGGTCC,-0.314 E-score
14,ACGCAGCC,-0.292 E-score
15,ATGCGAGG,-0.0631 E-score
16,GGATGGAA,-0.267 E-score
17,AATCACAG,0.0127 E-score
18,GGATACCA,0.0794 E-score
19,AAACTCGT,0.163 E-score
20,AAGCAGCC,-0.0807 E-score
21,CAGTAGCG,0.143 E-score
22,ATCGGCTG,-0.01 E-score
23,ATCGTGGA,-0.001 E-score
24,GAGGCATC,-0.172 E-score
25,GTTACCAA,0.0544 E-score

row,Sequence,binding signal
1,AGACAATA,0.0734 E-score
2,TGGCCCAA,-0.305 E-score
3,AAAGCTTT,-0.0317 E-score
4,GAATAATC,-0.0982 E-score
5,AAATTGGG,0.108 E-score
6,ACAAGGGA,-0.18 E-score
7,GTTCGTGA,0.0315 E-score
8,AGCGCACC,-0.254 E-score
9,ATATTAGG,0.149 E-score
10,GAAATTGC,0.132 E-score
11,CAAACTGG,-0.149 E-score
12,CGACGAAC,-0.00956 E-score
13,ACCACGTG,-0.15 E-score
14,CAACTGCA,0.204 E-score
15,CCACGATA,0.0626 E-score
16,AGCGTTGG,-0.206 E-score
17,AATCTTGG,-0.0853 E-score
18,AGGCTTTA,-0.128 E-score
19,ATTATAGA,0.353 E-score
20,CAGCTGGA,-0.0564 E-score
21,CACTAATG,0.154 E-score
22,ACTCTGTA,0.118 E-score
23,ATCTCAAA,0.135 E-score
24,CCGAAACG,-0.141 E-score
25,GGTTGTCA,-0.0845 E-score

row,Sequence,binding signal
1,AGGGCTAC,-0.216 E-score
2,GGGTGGGA,-0.134 E-score
3,TTCCTCAA,-0.0758 E-score
4,ATCTAGGA,0.0234 E-score
5,ACAAGTGA,0.015 E-score
6,CAGTAATA,0.182 E-score
7,CATTCGCA,-0.164 E-score
8,ATCACTAA,0.144 E-score
9,GGTATATA,0.386 E-score
10,ACTACAAG,0.22 E-score
11,AGTAGTCC,0.0625 E-score
12,ATCCTGTA,0.283 E-score
13,GCTTATAA,0.0947 E-score
14,TATGGACA,0.0856 E-score
15,ATTTTGCC,0.0261 E-score
16,CCCAGACC,-0.315 E-score
17,AATCAATC,0.0523 E-score
18,TAATTTAA,0.356 E-score
19,AAACATGA,0.273 E-score
20,AATGCAGC,-0.116 E-score
21,CGTAAGGC,-0.174 E-score
22,ATCCTTAG,0.0244 E-score
23,CCAGAGCC,-0.314 E-score
24,AGCACAAG,0.0298 E-score
25,AAGGATTG,-0.128 E-score

row,Sequence,binding signal
1,GTACCAGA,-0.0447 E-score
2,CAGCACAG,-0.0991 E-score
3,GTTTAACA,0.108 E-score
4,AGCCCGCG,-0.231 E-score
5,CCACGCGG,-0.256 E-score
6,AGCGGCGC,-0.27 E-score
7,AAGTGCCA,-0.2 E-score
8,CAGTGCAA,-0.0853 E-score
9,AGTCCCAG,-0.257 E-score
10,CCTGGCAA,-0.129 E-score
11,ATGGCTCA,-0.169 E-score
12,TGGCGTAA,0.106 E-score
13,AGAGCTAA,0.151 E-score
14,AGGACATC,-0.297 E-score
15,CTCCTTAC,-0.194 E-score
16,GGGGACAC,-0.289 E-score
17,CCTGGGCA,-0.283 E-score
18,ACCAGCGG,-0.0305 E-score
19,CGTAGGTA,0.347 E-score
20,AAACTCGC,-0.0186 E-score
21,GCTAGGAC,-0.24 E-score
22,TAATCCCA,-0.105 E-score
23,AGACGAAT,-0.0134 E-score
24,GCGTGTTA,0.0238 E-score
25,GAGGCGCA,-0.123 E-score

row,Sequence,binding signal
1,GCTCGTCA,-0.249 E-score
2,ACCGGAAG,-0.165 E-score
3,ACGTTACG,-0.104 E-score
4,CCAGATGC,-0.107 E-score
5,ATGTCCGC,-0.0274 E-score
6,AAGGGCAG,-0.266 E-score
7,CAGTTGAA,0.0294 E-score
8,AAATCATT,0.0987 E-score
9,ATATCCTG,-0.00854 E-score
10,GGCCTGCA,-0.221 E-score
11,ACGAAGTG,-0.0315 E-score
12,GCGCGTGA,-0.235 E-score
13,CAGATGGG,-0.0675 E-score
14,ACCCCGAT,-0.138 E-score
15,TCATATCA,0.132 E-score
16,ATGGGCTA,0.0395 E-score
17,ACGGTGTC,-0.262 E-score
18,GTAAGGGA,-0.124 E-score
19,CAGTACAC,0.0785 E-score
20,AGTGCGAA,-0.135 E-score
21,CGGCTCAG,-0.28 E-score
22,GAATAACA,0.0838 E-score
23,CCGGTGGC,-0.236 E-score
24,AACAACCG,-0.0593 E-score
25,ACGAACCG,-0.12 E-score

row,Sequence,binding signal
1,AAGCAACT,0.139 E-score
2,TATTTTAA,0.322 E-score
3,AAAGGGGT,-0.257 E-score
4,ACTGAGAA,0.0543 E-score
5,GGCCTTCA,-0.28 E-score
6,GATCTCGA,0.0395 E-score
7,ATCGGCTA,0.0346 E-score
8,ACCAAAGC,-0.15 E-score
9,ATACGACA,0.024 E-score
10,CCTGTTTA,-0.13 E-score
11,ACAATCGA,-0.0237 E-score
12,CTTCATAA,0.154 E-score
13,CCAGCAGA,-0.188 E-score
14,TAAGTGTA,0.246 E-score
15,CACAGAGA,-0.0186 E-score
16,CAATATTA,0.254 E-score
17,AATACTGG,0.169 E-score
18,ATCATCGC,0.0362 E-score
19,AACGAGTC,-0.0528 E-score
20,GATAGGCC,-0.142 E-score
21,ACCGTGAT,0.145 E-score
22,CCTGGCGC,-0.237 E-score
23,GATCTCCC,-0.295 E-score
24,AGCAATAA,0.0749 E-score
25,ACTCAATC,0.105 E-score

row,Sequence,binding signal
1,ATGTTTGA,0.124 E-score
2,GGTAAACC,0.00688 E-score
3,AGGCGCAA,-0.126 E-score
4,AAGCGAGT,-0.0204 E-score
5,CGAGACGA,-0.0245 E-score
6,ATCACTAC,0.0844 E-score
7,AGCAGAAA,0.0612 E-score
8,CTGCAACA,-0.0642 E-score
9,GAATCTCC,0.00693 E-score
10,CAGGCGGG,-0.394 E-score
11,AGTACAAC,0.0971 E-score
12,ACGTGAGG,-0.0871 E-score
13,TTAGGGAA,-0.126 E-score
14,AGTGTTCG,0.00932 E-score
15,CTTCCTCC,-0.344 E-score
16,CCAGTACC,-0.0547 E-score
17,ACGCGTGC,-0.0951 E-score
18,AGCTCGCG,-0.123 E-score
19,CCGTAAAA,0.0965 E-score
20,GCCGCGCC,-0.283 E-score
21,ACCATTAA,0.0746 E-score
22,CTTATGTC,-0.104 E-score
